From patent US7615361B2, “Toxicity screening methods” (Ceetox, Inc., priority 2006, dated 2009)
At least one read-out could not be matched to a standard name with certainty.

Tests used:
[1] = tested on: rat cardiomyocytes; experiment: Intracellular total glutathione (GSH); format: cell-based; conditions: CM, decrease indicated by (−)
Experimental: (§1) One test compound (Compound A) was received as dry powder and evaluated for potential cytotoxicity in a battery of in vitro assays. The compound was tested using both rat cardiomyocytes (CM) from rat neonates and a rat hepatoma (H4IIE) cell line. […] The cell supernatant or the cells themselves were harvested for biochemical analysis. General cytotoxicity was evaluated by monitoring membrane integrity, mitochondrial function, cell proliferation, oxidative stress, and apoptosis. In addition, interaction with P-glycoprotein (PgP) on H4IIE cells and solubility of the test compound were also assessed. The means of each exposure group (n=3-7) were calculated for each assay performed.

[2] = tested on: H4IIE cells; experiment: Intracellular total glutathione (GSH); format: cell-based, rat; conditions: 24 HR, decrease indicated by (−)
Experimental: as §1
Experimental Protocol: The test compound was provided and stored at 4° C. until needed. Dosing solutions were prepared in complete culture medium. The rat hepatoma (H4IIE) cell line was used as the test system.

SMILES | Percent Change in Total GSH ([1]; 24 HR) [%] | Percent Change in Total GSH [2] [%] | Percent Change in Total GSH ([1]; 1 HR) [%] | Percent Change in Total GSH ([1]; 3 HR) [%] | Percent Change in Total GSH ([1]; 6 HR) [%] | Percent Change in Total GSH ([2]; listed as DOXORUBICIN) [%]
CC(C)c1nc(CN(C)C(=O)N[C@H](C(=O)N[C@@H](Cc2ccccc2)C[C@H](O)[C@H](Cc2ccccc2)NC(=O)OCc2cncs2)C(C)C)cs1 [RITONAVIR, ritonavir] | −100.0 | −79.7 |  |  |  | 
COc1cccc2c1C(=O)c1c(O)c3c(c(O)c1C2=O)C[C@@](O)(C(=O)CO)C[C@@H]3O[C@H]1C[C@H](N)[C@H](O[C@@H]2CCCCO2)[C@H](C)O1 [PIRARUBICIN, pirarubicin] | −96.3 | −1.5 |  |  |  | 
O=C1Nc2ccc(Cl)cc2[C@@](C#CC2CC2)(C(F)(F)F)O1 [EFAVIRENZ, efavirenz] | −100.0 | −99.2 |  |  |  | 
COc1cccc2c1C(=O)c1c(O)c3c(c(O)c1C2=O)C[C@@](O)(C(=O)CO)C[C@@H]3O[C@H]1C[C@H](N)[C@H](O)[C@H](C)O1 [ADRIAMYCIN, Adriamycin] | −86.1 | −96.0 | −19.3 | −94.8 | −96.2 | −93.6
Cc1ccnc2c1NC(=O)c1cccnc1N2C1CC1 [NEVIRAPINE, nevirapine] | −58.6 |  |  |  |  | 
Nc1nc(NC2CC2)c2ncn([C@H]3C=C[C@@H](CO)C3)c2n1 [ABACAVIR, abacavir] | −37.7 | −63.1 |  |  |  | 
CC[C@@]1(O)C(=O)OCc2c1cc1n(c2=O)Cc2cc3ccccc3nc2-1 [CAMPTOTHECIN, Camptothecin] | −31.5 | −76.9 |  |  |  | 
CC(=O)[C@]1(O)Cc2c(O)c3c(c(O)c2[C@@H](O[C@H]2C[C@H](N)[C@H](O)[C@H](C)O2)C1)C(=O)c1ccccc1C3=O [IDARUBICIN, idarubicin] | −100.0 | −100.0 |  |  |  | 
COc1cccc2c1C(=O)c1c(O)c3c(c(O)c1C2=O)C[C@@](O)(C(=O)CO)C[C@@H]3O[C@H]1C[C@H](N)[C@@H](O)[C@H](C)O1 [EPIRUBICIN, epirubicin] | −100.0 | −90.6 |  |  |  | 
CC(C)Nc1cccnc1N1CCN(C(=O)c2cc3cc(NS(C)(=O)=O)ccc3[nH]2)CC1 [DELAVIRDINE, delavirdine] | −48.5 | −73.9 |  |  |  | 
Cc1cccc(C)c1OCC(=O)N[C@@H](Cc1ccccc1)[C@@H](O)C[C@H](Cc1ccccc1)NC(=O)[C@H](C(C)C)N1CCCNC1=O [LOPINAVIR, lopinavir] | −91.7 | −70.3 |  |  |  | 
CC(C)(C)NC(=O)[C@@H]1CN(Cc2cccnc2)CCN1C[C@@H](O)C[C@@H](Cc1ccccc1)C(=O)N[C@H]1c2ccccc2C[C@H]1O [indinavir] | −89.2 | −57.1 |  |  |  | 
O=C1c2c(O)ccc(O)c2C(=O)c2c(NCCNCCO)ccc(NCCNCCO)c21 [MITOXANTRONE, mitoxantrone] | −100.0 | −58.1 |  |  |  | 
